Several values for one entry are separate records, joined by “and”; a condition that tells them apart may be missing. Equal entries are not always repeated. The whole screen tested about 340,000 compounds, of which about 12,000 (3.5%) were called active. The shares of active, inactive and inconclusive entries below differ from those in the screen. Calls come from the whole dose curve; as a rule, active = well fitted inhibition curve with a large enough effect; inconclusive = small, poorly fitted or top-dose-only effect, or another doubt; inactive = no such curve, though single readings can be large or run the other way. A potency beside an inconclusive call is a rough fit, not a confirmed value.
Experiment: qHTS Assay for Inhibitors of Hepatitis C Virus (HCV)
Details: Huh7.5.1 HCVcc-Cre (HCVcc is cell-culture hepatitis C virus) infection, luciferase reporter, 44 h; series mostly up to 41.8 µM
Summary of the method: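 Cells seeded at 1,000/well and cultured 4 h, then compounds added followed by HCVcc-Cre virus (~0.5 moi). After 44 h further culture, luciferase substrate was added, plates held 15 min at room temperature, and luminescence read for 15 sec.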
With `CCCC1=Nc2cc(C(=O)NCCCOC(C)C)ccc2Sc2ccccc21` the Potency was inconclusive: 3.16 µM [inhibitor, full curve]. With `COc1cccc(OC)c1OCC(C)CNCC1CCCO1` (stereo unspecified) the Potency was active: 1 µM. For `COc1cc(OC)c(-c2nn3c(C4CCCCC4)nnc3s2)cc1OC`, the Potency was inconclusive: 2.82 µM [inhibitor, single point]. In the case of `COc1ccccc1NS(=O)(=O)c1ccc(C)c(NC(=O)c2ccc(S(=O)(=O)N3CCCCCC3)cc2)c1`, the Potency is reported as active: 7.94 µM. With `CCc1nccn1CCC(=O)NC1CC(C)(C)Cc2c1cnn2-c1cccc(F)c1` (stereo unspecified) the Potency was inconclusive: 31.6 µM [inhibitor, single point]. With `Cc1onc(-c2ccccc2Cl)c1C(=O)Nc1ccccc1C(=O)NC(C)C` the Potency was active: 4.47 µM. In the case of `O=C(NC1CCN(C(=S)Nc2ccc(F)cc2)CC1)C1CCCCC1`, the Potency is reported as inconclusive: 31.6 µM [inhibitor, single point]. With `CCOc1cc(CNc2ccc(S(N)(=O)=O)cc2)cc(Cl)c1OC` the Potency was “inactive”. For `COC(=O)Cc1[nH]n(-c2nc3ccccc3s2)c(=O)c1C(C)=Nc1ccc(Cl)cc1`, the Potency was “inactive”. With `O=C(Nc1ccc(Cl)cc1Cl)c1ccc2c(c1)OCCO2` the Potency was inconclusive: 11.2 µM [inhibitor, partial curve]. For `c1cncc(-c2nnc3sc(C4CCCCC4)nn23)c1`, the Potency was “inactive”. With `C/C(Cc1ccccc1)=N\NC(=O)c1cc(C(C)(C)C)[nH]n1` the Potency was inconclusive: 31.6 µM [inhibitor, single point]. With `COc1cccc(C2Nc3ccccc3C(=O)N2Cc2ccccc2)c1` (stereo unspecified) the Potency was “inactive”. For `COc1ccc([C@H]2/C=C\CN(C(=O)c3ccc(C)cc3)[C@@H](C)C(=O)N2Cc2ccc(F)cc2)cc1`, the Potency was inconclusive: 20 µM [inhibitor, single point]. For `Cc1ccc(Nc2nc(/N=C/N(C)C)n[nH]2)cc1C`, the Potency was “inactive”. With `CCCC(=O)Nc1ccc(NC(=S)NC(=O)c2ccccc2[N+](=O)[O-])cc1` the Potency was inconclusive: 15.8 µM [inhibitor, single point]. For `NCCCC[C@H]1CN=C(N)N1CCc1cccc2ccccc12`, the Potency was “inactive”. For `CC(C)OC(=O)Nc1ccc2c(c1)N(C(=O)CCN1CCN(CCO)CC1)c1ccccc1CC2`, the Potency was “inactive”. For `CCN(CC)S(=O)(=O)c1cc(NC(=O)C(=O)c2c(-c3ccccc3)cc3ccccn23)ccc1C`, the Potency was active: 12.6 µM. For `O=[N+]([O-])c1ccc(N2CCNCC2)cc1NCC1CCCO1` (stereo unspecified), the Potency was inconclusive: 22.4 µM [inhibitor, single point]. With `CNC(=O)/C(C#N)=C/c1ccc(-c2ccc(Cl)cc2)o1` the Potency was inconclusive: 11.2 µM [inhibitor, single point]. With `COc1cc(CCC(=O)Nc2cccc(C(F)(F)F)c2)cc(OC)c1OC` the Potency was inconclusive: 1.78 µM [inhibitor, full curve]. For `CCOC(=O)c1c(NC(=O)CSC(=S)N(C)C)sc(C)c1C`, the Potency was inconclusive: 1.26 µM [inhibitor, full curve]. With `CCOC(=O)c1cc(CC)sc1NC(=O)CC1SC(N)=NC1=O` (stereo unspecified) the Potency was inconclusive: 31.6 µM [inhibitor, single point]. In the case of `CCOC(=O)C(CC)(CC)C(=O)/C=C/c1ccc(Br)cc1`, the Potency is reported as inconclusive: 31.6 µM [inhibitor, single point]. For `CCCN1CCN(C(=O)CCCn2c(C)c3cnn(-c4ccccc4)c(=O)c3c2C)CC1`, the Potency was “inactive”. In the case of `OC(c1ccccn1)C(O)c1ccccn1` (stereo unspecified), the Potency is reported as “inactive”. With `Cc1sc2ncnc(N3CCC(C(=O)NNC(=O)COc4ccccc4F)CC3)c2c1C` the Potency was inconclusive: 3.16 µM [inhibitor, partial curve]. With `CC(C)=NOc1nc(N(C)C)nc(N2CCOCC2)n1` the Potency was “inactive”. In the case of `O=C1c2cnc3nc(SCc4ccc(Cl)cc4)nn3c2CC2c3ccccc3CCN12` (stereo unspecified), the Potency is reported as inconclusive: 25.1 µM [inhibitor, single point]. In the case of `O=C(Cn1c(C(F)(F)F)nc2ccccc21)N1CCCC1`, the Potency is reported as “inactive”. In the case of `c1coc(CNc2ncnc3c2oc2ccccc23)c1`, the Potency is reported as inconclusive: 11.2 µM [inhibitor, partial curve]. For `O=C(N/N=C/c1ccc2c(c1)OCO2)c1ccc(COCC(F)(F)C(F)F)cc1`, the Potency was inconclusive: 3.16 µM [inhibitor, single point]. In the case of `CC1CCc2c(sc(NC(=O)COC(=O)C3CCCO3)c2C#N)C1` (stereo unspecified), the Potency is reported as inconclusive: 22.4 µM [inhibitor, single point]. For `COc1ccc(-c2nc3ccc(Cl)cn3c2NC2CCCCC2)cc1SC1CCCCC1`, the Potency was “inactive”. With `Cc1cccc(N2C(=O)CC(N3CCN(C(=O)c4ccccc4)CC3)C2=O)c1` (stereo unspecified) the Potency was “inactive”. For `S=c1[nH]nc(-c2ccc(Cl)cc2)n1/N=C/C=C/c1ccco1`, the Potency was “inactive”. For `COC(=O)C1=C(N)Oc2cc(C)n(CC3CCCO3)c(=O)c2C1c1ccc(Cl)c(Cl)c1` (stereo unspecified), the Potency was inconclusive: 31.6 µM [inhibitor, single point]. For `NC(N)=NC(=O)c1nc(Cl)c(N)nc1N`, the Potency was inconclusive: 35.5 µM [inhibitor, single point] and inconclusive: 3.98 µM [inhibitor, partial curve] and inconclusive: 5.62 µM [inhibitor, partial curve]. With `CCCc1cc(C(=O)Cc2ccc(F)cc2)c(O)cc1O` the Potency was “inactive”. For `COc1ccc(C(=O)N2CCN(c3cccc(Cl)c3)CC2)cc1S(=O)(=O)NC1CC1`, the Potency was inconclusive: 11.2 µM [inhibitor, single point]. With `Cc1ccc(C(=O)NCC(=O)OCCCOC(=O)CNC(=O)c2ccc(C)c(C)c2)cc1C` the Potency was “inactive”. With `CCOC(=O)C(=O)NCC(c1cccs1)S(=O)(=O)c1ccc(F)cc1` (stereo unspecified) the Potency was “inactive”. With `CCOC(=O)CN1C(=O)/C(=C/c2ccc(Cl)cc2)Oc2ccccc21` the Potency was “inactive”. For `CN(C)S(=O)(=O)c1ccc(Cl)c(C(=O)Nc2cccc([N+](=O)[O-])c2)c1`, the Potency was active: 11.2 µM. With `Cc1ccnc(NC(=S)NC(=O)c2ccco2)c1` the Potency was “inactive”. With `CCOc1ccc(S(=O)(=O)N(CC(=O)N/N=C/c2ccc(-c3ccc([N+](=O)[O-])cc3)o2)c2ccccc2)cc1` the Potency was inconclusive: 25.1 µM [inhibitor, single point]. For `COc1cc(/C=N/NC(=O)COc2cccc(F)c2)ccc1OS(=O)(=O)c1ccc(C)cc1`, the Potency was inconclusive: 22.4 µM [inhibitor, partial curve]. With `C=CCNC(=S)Nc1ccc(Cl)cc1F` the Potency was inconclusive: 10 µM [inhibitor, partial curve]. With `Cc1nn(C)c(C(=O)NCc2ccc(Cl)cc2)c1Cl` the Potency was inconclusive: 2.82 µM [inhibitor, full curve]. With `CC(=O)c1ccc(N2CCN(C(=O)c3cc(-c4ccc5c(c4)OCO5)nc4ccccc34)CC2)cc1` the Potency was inconclusive: 11.2 µM [inhibitor, single point]. For `COc1cc2nc(Nc3ccc(C)c(C)c3)nc(N)c2cc1OC`, the Potency was inconclusive: 14.1 µM [inhibitor, single point]. With `Cc1cc2c(cc(C(=O)OC(C(=O)NC3CCCCC3)C(C)C)n2C)o1` (stereo unspecified) the Potency was active: 15.8 µM. For `Cc1cccc(OCCNc2cc(N3CCOCC3)ccc2[N+](=O)[O-])c1`, the Potency was active: 10 µM. In the case of `O=C(COC(=O)c1n[nH]c2ccccc12)NCCc1ccccc1`, the Potency is reported as inconclusive: 35.5 µM [inhibitor, single point]. With `O=C1CSC(c2ccccn2)N1c1ccc2ccccc2c1` (stereo unspecified) the Potency was inconclusive: 31.6 µM [inhibitor, single point]. With `O=c1c2c(nc3c(-c4ccc(Cl)cc4)c[nH]n13)CCC2` the Potency was inconclusive: 11.2 µM [inhibitor, single point]. In the case of `CCOc1cc(/C=C2\SC(=N)N(c3nonc3N)C2=O)ccc1OCC(N)=O`, the Potency is reported as inconclusive: 31.6 µM [inhibitor, single point]. With `O=C(c1ccco1)N1CCC(c2nc3c(nnn3Cc3c(Cl)cccc3Cl)c(=O)[nH]2)CC1` the Potency was “inactive”. With `COc1ccc(S(=O)(=O)Cc2ccc(C(=O)N3CCN(c4cc(Cl)ccc4C)CC3)o2)cc1` the Potency was “inactive”. For `Cc1ccc(-c2cc(C(=O)N(C)CC(=O)Nc3ccccc3Br)c3ccccc3n2)o1`, the Potency was inconclusive: 10 µM [inhibitor, partial curve]. In the case of `Cc1cnc(NC(=O)c2ccc3c(c2)OCCO3)s1`, the Potency is reported as “inactive”. With `CSc1cccc(NC(=S)N2CCC(N(C)C3CCCCCC3)CC2)c1` the Potency was inconclusive: 14.1 µM [inhibitor, partial curve]. For `COc1ccc(C2CC(c3ccccc3Br)=NN2c2ccc(S(N)(=O)=O)cc2)cc1` (stereo unspecified), the Potency was active: 11.2 µM. With `CSc1ccc(/C=N/NC(=O)C[n+]2ccccc2)cc1` the Potency was “inactive”. In the case of `Cc1ccc(NC(=O)c2sc3ncn(CC(=O)N4CCN(c5ccccn5)CC4)c(=O)c3c2C)cc1Cl`, the Potency is reported as inconclusive: 10 µM [inhibitor, partial curve]. For `C[C@]12CC[C@H]3[C@@H](CC[C@]4(O)C[C@@H](O)CC[C@]34C=O)[C@@]1(O)CC[C@@H]2C1=CC(=O)OC1`, the Potency was active: 0.562 µM. For `O=C(COC(=O)/C=C/c1ccccc1)NC1CCCCCC1`, the Potency was inconclusive: 22.4 µM [inhibitor, single point]. In the case of `CNC(=O)c1ccc(-c2sc3nc(N4CCOCC4)c4c(c3c2N)CC(C)(C)OC4)o1`, the Potency is reported as inconclusive: 2.51 µM [inhibitor, full curve]. With `Clc1cc(Br)ccc1OCCCNCc1ccccc1` the Potency was inconclusive: 31.6 µM [inhibitor, single point]. For `C/C(=N\NC(=O)c1c(Cl)c(C)nn1C)c1cccc(NC(=O)C2CCCC2)c1`, the Potency was inconclusive: 25.1 µM [inhibitor, partial curve].

— PubChem BioAssay AID651820 (National Center for Advancing Translational Sciences (NCATS), 2012)
Potency is the fitted concentration of half-maximal effect; tags give direction and shape of the fitted curve.
